Screen size: about 350,000 compounds; about 260 (0.074%) were called active. The inconclusive results got no clear call from the source; some entries with a clear call stand among them for comparison. Calls follow the shape of the dose curve; as a rule, active = well fitted inhibition curve with a large enough effect; inconclusive = small, poorly fitted or top-dose-only effect; inactive = no such curve, though single readings can be large or run the other way. Potencies beside an inconclusive call are fits to weak or partial responses and may not hold up.
biological target: Ferritin light chain (Equus caballus) (UniProt P02791); assay: qHTS Assay for Identification of Novel General Anesthetics; conditions: apoferritin/1-aminoanthracene competitive binding, fluorescence; activity change, negative = displacement: at 77.5 µM (top of the series); also: nearly all actives have a fitted effect of over 20% in size
Chain of UniProt P02791 (P02791 whole entry, looked up): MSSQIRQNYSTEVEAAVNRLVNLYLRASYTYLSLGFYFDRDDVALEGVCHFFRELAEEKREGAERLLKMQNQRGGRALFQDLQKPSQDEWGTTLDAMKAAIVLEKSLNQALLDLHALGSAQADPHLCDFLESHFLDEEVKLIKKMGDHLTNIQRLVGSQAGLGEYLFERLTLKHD
Summary of the method: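 In PBS, apoferritin at 10 uM is loaded with 1-AMA from a 50% saturated solution. After 10 min of compound exposure at ambient temperature, reduced 535 nm fluorescence indicates probe displacement.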
% is scaled to controls: 0 for no effect and ±100 for the full control effect; potency is read from the fitted curve at half-maximal effect; tags tell the direction and shape of the fitted curve.

Activity change, negative = displacement, inactive:
CCNc1ccccc(C(=O)/C=C/c2ccc3c(c2)OCO3)c1=O -1.32%
COc1ccc(-c2nn(-c3ccccc3)cc2/C=N/NC(N)=S)cc1OC 37.5%
O=C1c2cccc3c([N+](=O)[O-])ccc(c23)C(=O)N1c1nccs1 -17.3%
Cc1ccccc1NC(=O)CCN1CCN(C)CC1 -0.995%
CC1=NN(c2ccc(N)cc2)C(=O)C1 -22.3%
CCc1ccc(C(=O)Nc2ccc3nc(C)ccc3c2)cc1 -1.38%
C[C@@H](CC(=O)O)[C@@H](N)C(=O)O 16.5%
O=C(COc1ccc(S(=O)(=O)N2CCCCC2)cc1)N1CCCCCC1 -16.2%
O=C1SCCc2c1n(Cc1ccccc1)c1ccccc21 -12.1%
CCCn1nnnc1NCc1ccc(SC)cc1 1.97%
C=CCOc1ccccc1C(=O)/C=C1/C(=O)Nc2ccccc21 -20.7%

Potency, inconclusive:
CCCCn1cc(S(=O)(=O)c2ccccc2)c(=O)c2cc(F)c(N3CCC(C)CC3)cc21 3.55 µM [inhibitor, single point]
CCCNC(=O)c1ccc(N2CCC3(CC2)CC(c2cccc(Br)c2)=NO3)c([N+](=O)[O-])c1 28.2 µM [inhibitor, partial curve]
CCOC(=O)C1CCCN(c2c(C(=O)c3ccccc3)cnc3ccccc23)C1 (stereo not drawn) 20 µM [inhibitor, partial curve]
Cc1ccccc1OCCNc1ccc(C(F)(F)F)cc1[N+](=O)[O-] 14.1 µM [inhibitor, partial curve]
CC(=O)Nc1cccc(C(=O)OCC(=O)c2ccccc2Cl)c1 28.2 µM [inhibitor, partial curve]
O=C(Cc1cccs1)Nc1nnc(SCC(=O)N2CCCCC2)s1 14.1 µM [inhibitor, partial curve]
CC(=O)OCC1(C)CN(c2ccccc2)N(C(=O)c2ccc(C(C)(C)C)cc2)C1=O (stereo not drawn) 35.5 µM [inhibitor, single point]
CCc1ncc(C(O)c2cccc3ccccc23)n1C (stereo not drawn) 31.6 µM [inhibitor, partial curve]
O=C(c1ccc(-c2cccc(C(F)(F)F)c2)o1)N1CCN(c2ccccc2O)CC1 15.8 µM [inhibitor, partial curve]
O=S(=O)(c1cccc(NC(=S)Nc2ccc(Br)cc2Cl)c1)N1CCOCC1 35.5 µM [inhibitor, partial curve]
Cc1ccccc1C1C(C#N)=C2N=C(N)c3c(sc4c3CCCCC4)N2C2=C1C(=O)CCC2 (stereo not drawn) 17.8 µM [inhibitor, partial curve]
CCN(C(=O)COC(=O)CSc1ccc(C(N)=O)cc1[N+](=O)[O-])C1CCCCC1 17.8 µM [inhibitor, partial curve]
CC(=O)Nc1sc2c(c1C(c1ccc(F)cc1)N1CCOCC1)CCCC2 (stereo not drawn) 50.1 µM [inhibitor, single point]
O=[N+]([O-])c1ccc(N2CCN(c3ccccc3O)CC2)c(Cl)c1 15.8 µM [inhibitor, partial curve]
Cc1ccc(NC(NC(=O)c2cccs2)C(Cl)(Cl)Cl)cc1C (stereo not drawn) 20 µM [inhibitor, partial curve]
O=C(CCl)Nc1ccccc1Sc1ccccc1 56.2 µM [inhibitor, single point]
CN1/C(=C\C(=O)C[n+]2ccc(C(=O)c3ccccc3)cc2)C(C)(C)c2ccccc21 12.6 µM [inhibitor, partial curve]
Cc1cc(C(=O)CSc2nc(N)cc(N)n2)c(C)n1C1CC1 14.1 µM [inhibitor, partial curve]
CSc1ccc(CNc2ccc(C)cc2)cc1 5.62 µM [inhibitor, full curve]
Cc1noc(C)c1-c1ccc2ncnc(NCc3ccc(-c4ccccc4)cc3)c2c1 11.2 µM [inhibitor, partial curve]
COc1ccc(NC(=O)Cn2nnc(C(=O)NCc3cccc(OC)c3)c2N)cc1 8.91 µM [inhibitor, full curve]
Cc1cc(=O)oc(C)c1C(=O)OCC(=O)c1ccc(Cl)c(Cl)c1 15.8 µM [inhibitor, partial curve]
CC12COC3(C(=O)Nc4nccs4)CC1CCC32C (stereo not drawn) 44.7 µM [inhibitor, single point]
Cc1ccccc1Nc1nnc(SCC(=O)Nc2ncc(C(F)(F)F)cc2Cl)s1 50.1 µM [inhibitor, single point]
Cc1ccc(NS(=O)(=O)c2ccc3[nH]c4c(c3c2)CCCCCC4)cc1C 7.08 µM [inhibitor, full curve, poor fit]
O=C(CN1C(=O)c2ccccc2S1(=O)=O)NC1CC2CCC1C2 (stereo not drawn) 31.6 µM [inhibitor, partial curve]
CN(C)c1nc(NC(C)(C)C)nc(SCC(=O)Nc2ccccc2)n1 35.5 µM [inhibitor, partial curve]
Cc1ccc(S(=O)(=O)N(C)c2ccc(C(=O)Nc3cccnc3)cc2)cc1 39.8 µM [inhibitor, single point]
CC(C)(C)c1ccc(C(=O)N2CCCC2c2cccs2)cc1 (stereo not drawn) 35.5 µM [inhibitor, partial curve]
Cc1ccc(/C=C2\CCC3=C2OC(N)=C(C#N)C3c2ccc(C)cc2)cc1 (stereo not drawn) 31.6 µM [inhibitor, partial curve]
Cc1ccc(NC(=O)/C(=C\c2ccc([N+](=O)[O-])cc2)NC(=O)c2ccccc2)cc1 25.1 µM [inhibitor, partial curve]
COc1cc(NC(=O)c2noc3c2CC(C(C)(C)C)CC3)cc(OC)c1OC (stereo not drawn) 6.31 µM [inhibitor, full curve, poor fit]

— PubChem BioAssay AID485281 (National Center for Advancing Translational Sciences (NCATS), 2010)
